Results as given in patent publication US20230416345A1, “NEW TYPE II COLLAGEN BINDING PROTEINS” (Navigo Proteins GmbH, priority 2020, published 2023).

Experiments:
[1] = target: T1, hCol2 (human Type II collagen) (Homo sapiens, UniProt P02458); assay: Binding analysis by SPR (Biacore 3000) vs human type II collagen; details: dimers or tetramers; Langmuir 1:1 model
T1 construct: purchased Chondrex
Experimental: Proteins with affinity tag were purified by affinity chromatography and size exclusion. After affinity chromatography purification using Strep-Tactin Superflow high capacity cartridges (IBA Lifesciences) a size exclusion chromatography (SEC) was performed using an Äkta system and a Superdex™ 200 HiLoad 16/600 column (Cytiva). Fused variants with Aflibercept were purified via MabSelect SuRe (Cytiva) affinity chromatography followed by a size exclusion chromatography (SEC) using an Äkta system and a Superdex™ 200 HiLoad 16/600 column (Cytiva). All chromatography processing steps were carried out on AKTA systems using matrices from Cytiva. Homogenous species of all purified ligands were obtained; no aggregation was detected. Following SOS-PAGE analysis positive fractions were pooled and their protein concentrations were measured. Further analysis included SOS-PAGE, SE-HPLC and RP-HPLC. Protein concentrations were determined by absorbance measurement at 280 nm using the molar absorbent coefficient. Reversed phase chromatography (RP-HPLC) was performed using a Dionex HPLC system and a PLRP-S (5 μm, 300 Å) column (Agilent). […] Binding of Collagen II was evaluated by SPR measurements using a Biacore 3000 system. […] Binding molecules were injected at different concentration and affinity was calculated by langmuir 1:1 binding model. […]

[2] = target: T2, recombinant human collagen type II (h Col II) (Homo sapiens, UniProt P02458); assay: KD-determination by ELISA vs human collagen type II; assay type: binding; details: type II collagen; tetramers: of different species
T2 construct: purchased Chondrex CHX-20051
Experimental: (§1) High binding plates (Greiner, 781061) were immobilized with 2.5 μg/ml recombinant human collagen type II (h Col II, Chondrex, CHX-20051), rabbit collagen type II (rbCol II, prepared from rabbit eyes), porcine collagen type II (p Col II, prepared from porcine eyes), human collagen type I, (h Col I, Sigma, C5483-1MG), human collagen type V (h Col V, Abcam, ab7537), human collagen type III (h Col Ill, Abcam, ab7535) and 67B89 (domain of fibronectin, produced in E. coli) respectively over night at 4° C. ELISA-plates were washed 3 times with PBST (PBS+ 0.1% Tween) and blocked with 3% BSA/0.5% Tween/PBS 2 h at RT. After washing with PBST, dilution series of 1.1 μM to 7×10^−4 nM of dimers (CID 211999, CID 212000), dilution series of 100 nM to 7×10^−6 nM of tetramers (CID 212001 and CID 212704) and dilution series of 10 μM to 2 nM of dimer (CID 212705) were incubated on ELISA-plates 1 h at rt. Plates were washed with PBST and incubated with biotinylated anti-StrepTag-ab (Antikörper-online, ABIN1573895) with a dilution of 1:10.000 for 1 h at rt. The binding was visualized with a-rabbit-IgG-HRP (Sigma, A9169) with a dilution of 1:10.000 and as substrate TMB Plus von KEM EN TEC Diagnostic, Kat-Nr. 4395.

[3] = target: T3, human collagen type I (h Col I) (Homo sapiens, UniProt P02452+P08123); assay: ELISA specificity vs human collagen type I; assay type: binding
T3 construct: purchased Sigma C5483-1MG
Experimental: as §1

[4] = target: T4, human collagen type III (Homo sapiens, UniProt P02461); assay: ELISA specificity vs human collagen type III; assay type: binding
T4 construct: purchased Abcam ab7535
T4 sequence (P02461 154-1221 limits assumed): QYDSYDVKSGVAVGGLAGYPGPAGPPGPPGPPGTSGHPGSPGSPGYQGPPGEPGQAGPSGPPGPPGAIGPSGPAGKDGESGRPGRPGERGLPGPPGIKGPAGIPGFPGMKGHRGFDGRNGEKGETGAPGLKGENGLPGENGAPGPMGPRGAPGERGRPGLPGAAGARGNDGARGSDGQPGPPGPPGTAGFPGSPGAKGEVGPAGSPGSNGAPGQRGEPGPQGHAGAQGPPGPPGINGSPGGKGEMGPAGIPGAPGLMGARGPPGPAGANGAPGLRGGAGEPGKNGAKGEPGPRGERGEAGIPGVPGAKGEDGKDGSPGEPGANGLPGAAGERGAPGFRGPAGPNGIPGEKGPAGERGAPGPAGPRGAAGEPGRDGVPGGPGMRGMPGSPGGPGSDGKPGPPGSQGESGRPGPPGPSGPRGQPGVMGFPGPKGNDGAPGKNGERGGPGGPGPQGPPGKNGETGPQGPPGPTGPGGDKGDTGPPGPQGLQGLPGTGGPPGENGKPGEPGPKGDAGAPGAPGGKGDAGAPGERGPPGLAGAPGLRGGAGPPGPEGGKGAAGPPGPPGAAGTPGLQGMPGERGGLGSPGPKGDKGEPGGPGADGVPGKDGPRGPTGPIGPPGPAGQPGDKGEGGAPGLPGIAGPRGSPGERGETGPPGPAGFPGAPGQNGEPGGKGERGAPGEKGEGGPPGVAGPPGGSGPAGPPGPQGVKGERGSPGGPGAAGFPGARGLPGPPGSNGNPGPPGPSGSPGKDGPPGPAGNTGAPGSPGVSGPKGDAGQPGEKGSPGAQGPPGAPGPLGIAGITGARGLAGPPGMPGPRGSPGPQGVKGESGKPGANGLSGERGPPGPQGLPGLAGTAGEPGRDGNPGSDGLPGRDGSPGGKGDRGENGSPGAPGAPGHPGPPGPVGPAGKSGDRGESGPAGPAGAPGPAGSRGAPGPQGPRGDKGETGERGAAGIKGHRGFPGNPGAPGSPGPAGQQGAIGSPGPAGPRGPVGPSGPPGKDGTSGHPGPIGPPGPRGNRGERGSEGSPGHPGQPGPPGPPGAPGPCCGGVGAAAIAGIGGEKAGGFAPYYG
Experimental: as §1

[5] = target: T5, human collagen type V (h Col V) (Homo sapiens, UniProt P05997+P20908); assay: ELISA specificity vs human collagen type V; assay type: binding
T5 construct: purchased Abcam ab7537
Experimental: as §1

[6] = target: T6, 67B89 (domain of fibronectin) (Homo sapiens, UniProt P02751); assay: ELISA specificity vs 67B89; assay type: binding
T6 construct: unrelated fibronectin domain EDB (67B89) could be observed; made in house; host or cells: E. coli
Experimental: as §1

[7] = Soluble expression in Escherichia coli BL21(DE3); assay type: physicochemical; details: expression in E. coli BL21(DE3)
Experimental: Variants with affinity tag were expressed in Escherichia coli BL21(DE3) using a low copy plasmid system under regulation of a T7 promoter. Proteins were produced in soluble form after induction by lactose included in the medium (autoinduction medium). BL21 (DE3) competent cells were transformed with the expression plasmid, spread onto selective agar plates (kanamycin) and incubated overnight at 37° C. Precultures were inoculated from single colony in 3 ml 2×YT medium supplemented with 50 μg/ml kanamycin and cultured for 6 hours at 37° C. at 200 rpm in a conventional orbital shaker in culture tubes. […] Cultures were transferred to an orbital shaker and incubated at 30° C. and 200 rpm. Recombinant protein expression was induced by metabolizing glucose and subsequently allowing lactose to enter the cells. Cells were grown overnight for approx. 17 hours to reach a final OD600 of about 2-4. Before the harvest, the OD600 was measured, samples adjusted to 0.6/OD600 were withdrawn, pelleted and frozen at −20° C. To collect biomass cells were centrifuged at 12000×g for 15 min at 22° C. Pellets were weighed (wet weight). Cells were stored at −20° C. before processing.
Proteins with affinity tag were purified by affinity chromatography and size exclusion. After affinity chromatography purification using Strep-Tactin Superflow high capacity cartridges (IBA Lifesciences) a size exclusion chromatography (SEC) was performed using an Äkta system and a Superdex™ 200 HiLoad 16/600 column (Cytiva). Fused variants with Aflibercept were purified via MabSelect SuRe (Cytiva) affinity chromatography followed by a size exclusion chromatography (SEC) using an Äkta system and a Superdex™ 200 HiLoad 16/600 column (Cytiva). All chromatography processing steps were carried out on AKTA systems using matrices from Cytiva. Homogenous species of all purified ligands were obtained; no aggregation was detected. Following SOS-PAGE analysis positive fractions were pooled and their protein concentrations were measured. Further analysis included SOS-PAGE, SE-HPLC and RP-HPLC. Protein concentrations were determined by absorbance measurement at 280 nm using the molar absorbent coefficient. Reversed phase chromatography (RP-HPLC) was performed using a Dionex HPLC system and a PLRP-S (5 μm, 300 Å) column (Agilent). Analytic size exclusion chromatography (SE-HPLC) was performed using a Dionex HPLC system and a Superdex200 increase 5/150 GL (Cytiva). Binding of Collagen II was evaluated by SPR measurements using a Biacore 3000 system. Purified Collagen II was obtained from Chondrex.inc and VEGF-165 was obtained from Millipore. Targets were immobilized on a CM5-Sensor via NHS/EDC chemistry (immobilization level ˜1000 RU). Binding molecules were injected at different concentration and affinity was calculated by langmuir 1:1 binding model.

T6 sequence (P02751 1089-1540 limits assumed): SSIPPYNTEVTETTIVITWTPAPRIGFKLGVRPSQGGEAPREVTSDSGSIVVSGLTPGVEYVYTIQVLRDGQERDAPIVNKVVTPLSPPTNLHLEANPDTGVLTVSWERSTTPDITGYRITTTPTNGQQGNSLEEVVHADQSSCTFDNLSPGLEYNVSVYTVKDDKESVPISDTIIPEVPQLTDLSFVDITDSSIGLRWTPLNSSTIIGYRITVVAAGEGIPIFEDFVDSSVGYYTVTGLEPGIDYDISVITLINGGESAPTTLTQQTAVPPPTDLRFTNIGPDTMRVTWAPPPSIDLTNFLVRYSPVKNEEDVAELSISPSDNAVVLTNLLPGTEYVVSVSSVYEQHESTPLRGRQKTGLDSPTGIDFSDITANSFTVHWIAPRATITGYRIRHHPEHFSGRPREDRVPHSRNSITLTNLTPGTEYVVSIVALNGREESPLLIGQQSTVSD
T1 sequence (P02458 182-1241): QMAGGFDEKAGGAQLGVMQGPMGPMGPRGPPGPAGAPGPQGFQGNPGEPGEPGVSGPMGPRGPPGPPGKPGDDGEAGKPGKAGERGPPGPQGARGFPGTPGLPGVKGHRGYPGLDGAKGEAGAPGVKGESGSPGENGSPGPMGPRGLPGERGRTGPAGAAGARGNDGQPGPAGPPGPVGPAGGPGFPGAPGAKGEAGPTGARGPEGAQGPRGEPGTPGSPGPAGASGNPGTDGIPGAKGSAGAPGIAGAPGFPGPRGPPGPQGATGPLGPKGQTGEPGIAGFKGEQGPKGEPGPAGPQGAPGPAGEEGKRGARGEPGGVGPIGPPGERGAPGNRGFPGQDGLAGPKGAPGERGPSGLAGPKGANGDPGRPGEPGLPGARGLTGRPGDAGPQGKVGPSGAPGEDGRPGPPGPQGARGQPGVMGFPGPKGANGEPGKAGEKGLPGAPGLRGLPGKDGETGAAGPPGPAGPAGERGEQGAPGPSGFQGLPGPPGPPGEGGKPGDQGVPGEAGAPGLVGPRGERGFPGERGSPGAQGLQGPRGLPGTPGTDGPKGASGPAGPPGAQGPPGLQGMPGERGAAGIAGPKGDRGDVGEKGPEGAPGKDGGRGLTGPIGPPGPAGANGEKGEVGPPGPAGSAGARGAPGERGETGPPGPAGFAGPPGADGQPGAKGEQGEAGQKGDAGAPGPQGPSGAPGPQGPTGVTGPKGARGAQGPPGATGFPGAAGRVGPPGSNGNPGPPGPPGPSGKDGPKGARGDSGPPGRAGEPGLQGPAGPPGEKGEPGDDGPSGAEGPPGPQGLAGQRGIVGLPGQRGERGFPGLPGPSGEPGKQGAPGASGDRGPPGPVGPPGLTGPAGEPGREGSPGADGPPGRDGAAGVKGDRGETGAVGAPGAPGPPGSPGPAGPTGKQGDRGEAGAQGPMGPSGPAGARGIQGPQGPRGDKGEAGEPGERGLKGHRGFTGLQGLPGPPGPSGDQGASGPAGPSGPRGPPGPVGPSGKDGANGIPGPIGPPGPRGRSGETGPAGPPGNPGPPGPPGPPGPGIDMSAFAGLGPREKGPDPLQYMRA
T2 sequence (P02458 182-1241): as above
T5 sequence (P20908 38-1605 limits assumed): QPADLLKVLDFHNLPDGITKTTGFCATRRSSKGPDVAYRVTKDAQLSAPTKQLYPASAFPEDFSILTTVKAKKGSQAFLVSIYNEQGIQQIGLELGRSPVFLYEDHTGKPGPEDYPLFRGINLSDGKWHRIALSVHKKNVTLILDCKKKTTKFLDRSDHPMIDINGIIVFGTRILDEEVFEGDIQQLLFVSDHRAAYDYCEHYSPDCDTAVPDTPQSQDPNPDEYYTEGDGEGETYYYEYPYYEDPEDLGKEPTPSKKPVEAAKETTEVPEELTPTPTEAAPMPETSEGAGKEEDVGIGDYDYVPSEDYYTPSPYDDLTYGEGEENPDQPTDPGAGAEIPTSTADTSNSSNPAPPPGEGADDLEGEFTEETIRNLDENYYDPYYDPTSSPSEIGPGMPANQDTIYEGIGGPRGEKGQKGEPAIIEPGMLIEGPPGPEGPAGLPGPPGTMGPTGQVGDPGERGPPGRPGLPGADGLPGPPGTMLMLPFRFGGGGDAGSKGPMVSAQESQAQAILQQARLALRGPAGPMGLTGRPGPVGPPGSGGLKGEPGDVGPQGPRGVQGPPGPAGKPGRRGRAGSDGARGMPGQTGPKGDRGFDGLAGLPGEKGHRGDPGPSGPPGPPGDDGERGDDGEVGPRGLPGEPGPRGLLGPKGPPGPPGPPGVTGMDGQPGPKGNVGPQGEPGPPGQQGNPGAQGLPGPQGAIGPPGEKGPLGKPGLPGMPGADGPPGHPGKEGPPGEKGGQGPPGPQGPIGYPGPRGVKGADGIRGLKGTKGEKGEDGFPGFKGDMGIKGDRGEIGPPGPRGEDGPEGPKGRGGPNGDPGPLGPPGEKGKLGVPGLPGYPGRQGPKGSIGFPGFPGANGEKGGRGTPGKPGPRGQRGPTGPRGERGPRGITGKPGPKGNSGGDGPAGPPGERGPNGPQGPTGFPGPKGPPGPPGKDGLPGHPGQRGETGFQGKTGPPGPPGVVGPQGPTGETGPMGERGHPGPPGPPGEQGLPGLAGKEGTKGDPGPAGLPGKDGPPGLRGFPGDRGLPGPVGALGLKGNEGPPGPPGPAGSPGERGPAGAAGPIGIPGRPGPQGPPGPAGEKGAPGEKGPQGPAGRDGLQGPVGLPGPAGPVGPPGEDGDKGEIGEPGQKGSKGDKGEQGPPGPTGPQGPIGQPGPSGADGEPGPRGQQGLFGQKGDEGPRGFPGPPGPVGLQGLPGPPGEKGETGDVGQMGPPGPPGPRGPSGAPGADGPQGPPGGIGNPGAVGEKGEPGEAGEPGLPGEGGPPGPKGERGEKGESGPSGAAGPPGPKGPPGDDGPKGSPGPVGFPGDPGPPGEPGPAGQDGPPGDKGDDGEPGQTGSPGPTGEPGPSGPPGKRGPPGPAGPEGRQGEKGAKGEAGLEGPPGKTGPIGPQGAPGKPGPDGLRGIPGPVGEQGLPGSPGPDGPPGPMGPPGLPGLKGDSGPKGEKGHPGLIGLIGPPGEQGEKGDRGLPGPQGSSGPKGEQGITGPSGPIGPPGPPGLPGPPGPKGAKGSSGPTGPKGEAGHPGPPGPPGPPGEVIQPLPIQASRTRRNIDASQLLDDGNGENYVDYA
T5 sequence (P05997 27-1229 limits assumed): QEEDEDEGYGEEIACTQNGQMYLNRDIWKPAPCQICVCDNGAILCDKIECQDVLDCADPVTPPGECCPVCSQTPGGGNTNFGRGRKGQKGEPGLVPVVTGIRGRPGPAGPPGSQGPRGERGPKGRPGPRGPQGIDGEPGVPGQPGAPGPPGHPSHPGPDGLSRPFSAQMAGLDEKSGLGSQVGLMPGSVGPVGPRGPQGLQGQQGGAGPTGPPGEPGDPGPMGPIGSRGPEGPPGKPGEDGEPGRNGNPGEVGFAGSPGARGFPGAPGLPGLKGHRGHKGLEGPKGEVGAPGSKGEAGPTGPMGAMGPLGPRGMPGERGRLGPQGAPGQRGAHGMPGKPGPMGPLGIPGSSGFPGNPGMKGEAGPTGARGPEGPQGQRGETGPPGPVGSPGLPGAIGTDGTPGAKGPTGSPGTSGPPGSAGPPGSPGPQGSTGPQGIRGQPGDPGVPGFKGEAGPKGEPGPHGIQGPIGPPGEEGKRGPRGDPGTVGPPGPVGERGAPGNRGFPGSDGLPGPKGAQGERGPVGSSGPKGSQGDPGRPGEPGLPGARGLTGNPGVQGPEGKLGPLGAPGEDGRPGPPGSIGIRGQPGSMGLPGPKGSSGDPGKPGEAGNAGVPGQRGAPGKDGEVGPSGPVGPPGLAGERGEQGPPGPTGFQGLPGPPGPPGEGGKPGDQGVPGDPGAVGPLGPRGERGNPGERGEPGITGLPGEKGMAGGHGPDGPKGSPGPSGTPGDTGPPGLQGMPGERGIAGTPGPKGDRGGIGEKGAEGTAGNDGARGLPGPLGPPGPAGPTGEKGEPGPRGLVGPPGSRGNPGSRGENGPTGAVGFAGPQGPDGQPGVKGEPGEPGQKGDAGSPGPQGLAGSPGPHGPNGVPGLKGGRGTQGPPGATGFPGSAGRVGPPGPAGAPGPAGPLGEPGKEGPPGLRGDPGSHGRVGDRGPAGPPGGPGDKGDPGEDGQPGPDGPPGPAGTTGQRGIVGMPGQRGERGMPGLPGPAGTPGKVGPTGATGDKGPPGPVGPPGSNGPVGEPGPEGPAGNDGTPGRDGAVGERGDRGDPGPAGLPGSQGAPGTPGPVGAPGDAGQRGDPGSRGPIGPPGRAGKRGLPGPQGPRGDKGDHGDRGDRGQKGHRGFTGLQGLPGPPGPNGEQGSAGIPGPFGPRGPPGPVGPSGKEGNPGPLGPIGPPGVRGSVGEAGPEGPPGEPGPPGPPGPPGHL

B1: CID 212704: tetramer of SEQ ID NO: 15 (protein)
chain: IAAKFDEAQQAADKEILHLPNLTEQQRNYFRQWLRDDPSVSPTVLGTAQQLNDSQAPKIAAKFDEAQQAADKEILHLPNLTEQQRNYFRQWLRDDPSVSPTVLGTAQQLNDSQAPKGGGSIAAKFDEAQQAADKEILHLPNLTEQQRNYFRQWLRDDPSVSPTVLGTAQQLNDSQAPKIAAKFDEAQQAADKEILHLPNLTEQQRNYFRQWLRDDPSVSPTVLGTAQQLNDSQAPKSAWSHPQFEK
modifications: Col2 binding protein (tetramer of SEQ ID NO: 15) (CID212704)
Affinity [SPR] vs hCol2 [1]: 0.66 nM | binding affinity (KD) to type II collagen by ELISA, in words [2]: 3 digit-picomolar | binding to type I collagen (ELISA) [3]: No unspecific binding | binding to type III collagen (ELISA) [4]: No unspecific binding | binding to type V collagen (ELISA) [5]: No unspecific binding | binding to domain of fibronectin (67B89) (ELISA) [6]: No unspecific binding | Solubility Soluble expression [7]: 100%
